The entries are a selection whose mix differs from that of the whole data set. The list includes weakly bound sequences.
Tests used:
Test in all cases: protein-binding microarray (PBM)
Conditions in all cases: PBM: ~300 nM protein, 6 mM HEPES pH 7.8, 80 mM KCl, 0.5 mM EDTA, 0.5 mM EGTA, 6% glycerol, 35 ng/ul poly-dIdC, 1% milk, 1 h, room temperature; Ap Aiptasia and Nv Nematostella (sea anemones) / Co Capsaspora / Aq Amphimedon (sponge) / Dm Drosophila / Hu human; RHD is the Rel homology domain; high values mean tight binding; most listed sequences are background and not binding sites; double strand, one strand shown
GST-Ap-NF-kB RHD = target: T1, GST-Ap-NF-kB RHD (UniProt A0A913YAJ5)
T1 sequence: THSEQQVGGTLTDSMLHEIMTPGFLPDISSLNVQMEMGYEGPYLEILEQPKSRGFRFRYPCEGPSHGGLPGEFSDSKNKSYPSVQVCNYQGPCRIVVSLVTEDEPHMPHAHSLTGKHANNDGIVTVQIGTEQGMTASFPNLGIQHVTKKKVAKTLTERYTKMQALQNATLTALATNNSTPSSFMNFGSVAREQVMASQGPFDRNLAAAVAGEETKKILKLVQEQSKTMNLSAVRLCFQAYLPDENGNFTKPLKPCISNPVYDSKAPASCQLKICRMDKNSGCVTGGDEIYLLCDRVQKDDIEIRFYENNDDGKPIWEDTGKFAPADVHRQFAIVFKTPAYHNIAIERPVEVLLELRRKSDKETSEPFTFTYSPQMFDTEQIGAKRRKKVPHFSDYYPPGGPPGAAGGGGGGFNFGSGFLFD

[1] = target: T2, GST-Nv-NF-kB (Cys allele) (UniProt E5G601)
T2 sequence: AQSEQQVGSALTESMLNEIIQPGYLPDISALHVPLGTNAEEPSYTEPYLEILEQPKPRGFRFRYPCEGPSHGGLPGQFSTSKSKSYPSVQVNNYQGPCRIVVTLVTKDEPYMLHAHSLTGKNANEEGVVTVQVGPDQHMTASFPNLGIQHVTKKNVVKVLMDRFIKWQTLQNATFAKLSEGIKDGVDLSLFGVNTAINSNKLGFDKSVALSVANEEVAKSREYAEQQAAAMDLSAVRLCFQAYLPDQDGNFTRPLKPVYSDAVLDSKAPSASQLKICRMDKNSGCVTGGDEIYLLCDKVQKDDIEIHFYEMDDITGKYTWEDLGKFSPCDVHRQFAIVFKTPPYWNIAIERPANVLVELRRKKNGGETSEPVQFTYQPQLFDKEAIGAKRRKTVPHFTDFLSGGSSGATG

GST-Co-NF-kB = target: T3, GST-Co-NF-kB (UniProt F1ARL5)
T3 sequence: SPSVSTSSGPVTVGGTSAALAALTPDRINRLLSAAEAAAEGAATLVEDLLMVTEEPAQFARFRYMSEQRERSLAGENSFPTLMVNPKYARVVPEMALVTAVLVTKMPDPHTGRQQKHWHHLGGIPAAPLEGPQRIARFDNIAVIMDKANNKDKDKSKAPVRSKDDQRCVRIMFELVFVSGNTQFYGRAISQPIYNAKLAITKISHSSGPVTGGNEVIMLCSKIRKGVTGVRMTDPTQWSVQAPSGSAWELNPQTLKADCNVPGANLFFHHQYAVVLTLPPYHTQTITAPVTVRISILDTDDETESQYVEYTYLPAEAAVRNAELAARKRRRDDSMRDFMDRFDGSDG

GST-Dm-Relish = target: T4, GST-Dm-Relish (UniProt Q94527)
T4 sequence: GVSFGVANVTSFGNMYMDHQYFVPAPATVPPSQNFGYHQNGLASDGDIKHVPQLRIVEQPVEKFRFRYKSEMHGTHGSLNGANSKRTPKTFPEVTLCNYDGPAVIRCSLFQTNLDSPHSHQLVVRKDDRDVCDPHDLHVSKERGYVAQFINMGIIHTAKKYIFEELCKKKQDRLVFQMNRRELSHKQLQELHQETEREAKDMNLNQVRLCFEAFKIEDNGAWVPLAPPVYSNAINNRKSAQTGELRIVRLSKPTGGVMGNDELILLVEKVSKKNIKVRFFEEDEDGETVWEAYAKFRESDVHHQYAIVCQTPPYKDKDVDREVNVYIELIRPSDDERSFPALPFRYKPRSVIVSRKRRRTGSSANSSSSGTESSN

GST-Aq-NF-kB = target: T5, GST-Aq-NF-kB (UniProt A9Y5G7)
T5 sequence: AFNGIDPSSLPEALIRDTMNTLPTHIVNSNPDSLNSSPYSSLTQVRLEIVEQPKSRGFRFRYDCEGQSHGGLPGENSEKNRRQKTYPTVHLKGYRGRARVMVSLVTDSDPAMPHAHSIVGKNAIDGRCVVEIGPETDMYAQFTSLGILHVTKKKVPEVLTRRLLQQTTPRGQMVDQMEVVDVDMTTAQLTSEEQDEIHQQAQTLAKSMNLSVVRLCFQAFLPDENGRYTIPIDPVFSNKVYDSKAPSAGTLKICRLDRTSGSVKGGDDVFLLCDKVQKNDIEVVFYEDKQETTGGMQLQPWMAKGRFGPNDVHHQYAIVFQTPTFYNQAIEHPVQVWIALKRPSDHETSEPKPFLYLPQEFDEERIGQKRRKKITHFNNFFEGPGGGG

| Sequence | binding signal (GST-Ap-NF-kB RHD) | binding signal [1] | binding signal (GST-Co-NF-kB) | binding signal (GST-Dm-Relish) | binding signal (GST-Aq-NF-kB) |
| --- | --- | --- | --- | --- | --- |
| CCGATTAACATCAAGGCAGGCTGTGATGTTAATCGGGTCTTGATTCGCTTGACGCTGCTG | -0.583 z-score | -0.473 z-score | -1.26 z-score | -0.695 z-score | -0.509 z-score |
| CCGATTAACATCATCAAGTGCAGTGATGTTAATCGGGTCTTGATTCGCTTGACGCTGCTG | -0.705 z-score | 0.00254 z-score | -0.437 z-score | 0.119 z-score | -0.268 z-score |
| CCGATTAACATCACCTAGGACGCTGATGTTAATCGGGTCTTGATTCGCTTGACGCTGCTG | -0.464 z-score | -0.577 z-score | 0.0435 z-score | -0.289 z-score | 0.272 z-score |
| CCGATTAACATCAGCACGGCATGTGATGTTAATCGGGTCTTGATTCGCTTGACGCTGCTG | -0.229 z-score | 0.333 z-score | -0.0423 z-score | 0.654 z-score | -0.341 z-score |
| CCGATTAACATCATAGGGATGCTTGATGTTAATCGGGTCTTGATTCGCTTGACGCTGCTG | 0.649 z-score | 0.592 z-score | 0.267 z-score | -0.551 z-score | 0.514 z-score |
| CCGATTAACATCACAAGGCTGCGTGATGTTAATCGGGTCTTGATTCGCTTGACGCTGCTG | 0.196 z-score | 0.428 z-score | 0.488 z-score | 0.365 z-score | -0.326 z-score |
| CCGATTAACATCAGGTATTTCCATGATGTTAATCGGGTCTTGATTCGCTTGACGCTGCTG | 0.66 z-score | 0.664 z-score | 0.258 z-score | 2.79 z-score | 3.5 z-score |
| CCGATTAACATCAAAATCAGCTTTGATGTTAATCGGGTCTTGATTCGCTTGACGCTGCTG | -0.876 z-score | -0.134 z-score | 0.182 z-score | -0.537 z-score | -0.522 z-score |
| CCGATTAACATCAGCGTTTCTCTTGATGTTAATCGGGTCTTGATTCGCTTGACGCTGCTG | -0.637 z-score | -0.345 z-score | -0.45 z-score | -1.25 z-score | -0.257 z-score |
| CCGATTAACATCACATGTTGTTTTGATGTTAATCGGGTCTTGATTCGCTTGACGCTGCTG | -1.03 z-score | 0.0565 z-score | 0.351 z-score | 0.631 z-score | -0.173 z-score |
| CCGATTAACATCATGTAACTTGATGATGTTAATCGGGTCTTGATTCGCTTGACGCTGCTG | -0.224 z-score | -0.138 z-score | -1.1 z-score | 0.0703 z-score | -0.38 z-score |
| CCGATTAACATCAAGTTGTAACCTGATGTTAATCGGGTCTTGATTCGCTTGACGCTGCTG | -1.14 z-score | -0.504 z-score | -0.829 z-score | -0.436 z-score | -0.686 z-score |
| CCGATTAACATCAGGAAACGCCATGATGTTAATCGGGTCTTGATTCGCTTGACGCTGCTG | 0.109 z-score | 0.155 z-score | -0.055 z-score | -0.482 z-score | 0.111 z-score |
| CCGATTAACATCAATGCGGCTAGTGATGTTAATCGGGTCTTGATTCGCTTGACGCTGCTG | 0.208 z-score | -0.469 z-score | -0.131 z-score | -0.523 z-score | -0.325 z-score |

Reference: article PMC5700166
